Data taken from the antibiotic and cytotoxicity screens of Wong et al. (2023).
Some of the results follow.

Experiments:
[1] = tested on: HSkMC (human skeletal muscle cells); assay: cytotoxicity call (relative viability < 0.9); settings: 10 µM
[2] = tested on: HepG2; assay: cytotoxicity call (relative viability < 0.9); settings: 10 µM
[3] = tested on: S. aureus RN4220; assay: growth inhibition call (relative growth <= 0.2); settings: 50 µM

| Compound | cytotoxicity call [1] | cytotoxicity call [2] | growth inhibition call [3] |
| --- | --- | --- | --- |
| C[C@H](CO)N1C[C@H](C)[C@H](CN(C)Cc2ccncc2)Oc2ccc(NS(=O)(=O)c3cn(C)cn3)cc2C1=O | inactive | inactive | inactive |
| CN1CCN(C(=O)C[C@H]2CC[C@@H]3[C@H](COC[C@@H](O)CN3Cc3ccc4c(c3)OCO4)O2)CC1 | inactive | inactive | inactive |
| C[C@@H]1CN([C@@H](C)CO)C(=O)c2cc(NC(=O)Cc3ccccc3)ccc2O[C@@H](C)CCCCO[C@@H]1CN(C)CC1CCCCC1 | inactive | inactive | inactive |
| Cc1noc(C)c1S(=O)(=O)Nc1ccc2c(c1)CC(=O)N([C@H](C)CO)C[C@@H](C)[C@@H](CN(C)Cc1ccc3c(c1)OCO3)O2 | inactive | active | inactive |
| COc1ccc2c3c(n(c2c1)C)[C@@H](CO)N(Cc1ccccc1F)C[C@]13CN(C1)C(=O)C1CCOCC1 | inactive | inactive | inactive |
| C[C@@H]1CN([C@@H](C)CO)S(=O)(=O)c2ccc(-c3ccc(C(=O)N(C)C)cc3)cc2O[C@@H]1CN(C)C(=O)C1CCC1 | inactive | inactive | inactive |
| CC(C)CC#Cc1ccc2c(c1)O[C@@H](CN(C)S(=O)(=O)c1cccc(F)c1)[C@@H](C)CN([C@@H](C)CO)S2(=O)=O | inactive | inactive | inactive |
| C[C@@H]1CN([C@@H](C)CO)C(=O)c2cc(NC(=O)c3ccncc3)ccc2O[C@H]1CN(C)Cc1ccc(-c2ccccc2)cc1 | inactive | inactive | inactive |
| O=C(C[C@H]1C[C@@H]2c3cc(NC(=O)Nc4ccccc4F)ccc3O[C@@H]2[C@H](CO)O1)NCc1ccc(Oc2ccccc2)cc1 | active | inactive | inactive |
| C[C@@H]1CN([C@H](C)CO)C(=O)c2cc(NS(=O)(=O)c3cccs3)ccc2O[C@@H]1CN(C)Cc1ccc(Cl)c(Cl)c1 | inactive | inactive | inactive |
| CN(C)CC(=O)N[C@@H]1CC[C@H](CCNC(=O)C2CCC2)O[C@@H]1CO | inactive | inactive | inactive |
| COCC#Cc1ccc2c(c1)O[C@H](CN(C)C(=O)COC)[C@@H](C)CN([C@H](C)CO)S2(=O)=O | inactive | inactive | inactive |
| O=S(=O)(c1ccc(-n2cnnn2)cc1)N1CCNCC1 | inactive | inactive | inactive |
| C[C@@H]1CN([C@H](C)CO)C(=O)c2cc(NC(=O)Nc3cccc4ccccc34)ccc2O[C@@H]1CN(C)C(=O)Nc1cccc2ccccc12 | active | inactive | inactive |
| C[C@@H]1CN([C@H](C)CO)C(=O)Cc2cc(NC(=O)Cc3ccccc3)ccc2O[C@H]1CN(C)S(=O)(=O)c1ccccc1 | inactive | inactive | inactive |
| CC1CCC2(C(=O)OC3OC(COC4OC(CO)C(OC5OC(C)C(O)C(O)C5O)C(O)C4O)C(O)C(O)C3O)CCC3(C)C(=CCC4C5(C)CC(O)C(O)C(C)(CO)C5CCC43C)C2C1C (configuration not stated) | inactive | inactive | inactive |
| COc1[nH]sc(=NN)c1C#N | inactive | inactive | inactive |
| CN(C)CCCCNC(=O)[C@H]1C[C@H]2C(=O)N[C@@H](CCCCN)C(=O)N2[C@H]1c1ccc(O)cc1 | inactive | inactive | inactive |
| C[C@@H]1CN([C@@H](C)CO)S(=O)(=O)c2ccc(-c3ccncc3)cc2O[C@H]1CN(C)S(=O)(=O)c1ccccc1F | inactive | inactive | inactive |
| Cc1ccccc1S(=O)(=O)N1C[C@@H](O)COC[C@@H]2O[C@@H](CC(=O)NCCc3ccccc3)CC[C@H]21 | inactive | inactive | inactive |
| COCCOC(=O)N1C(=O)[C@@]2(c3cc(C#CCC(C(=O)OC)C(=O)OC)ccc31)[C@H](C(=O)N1CCCCCCC1)[C@H]1C(=O)O[C@H](c3ccccc3)[C@H](c3ccccc3)N1[C@@H]2c1ccc(OCCO)cc1 | inactive | inactive | inactive |
| COc1cccc(S(=O)(=O)Nc2ccc3c(c2)OC[C@H](C)N(C(=O)Cc2cccnc2)C[C@@H](C)[C@H](OC)CN(C)C3=O)c1 | inactive | inactive | inactive |
| C[C@@H]1CCCCO[C@@H](CN(C)C(=O)Cc2ccccc2)[C@H](C)CN([C@H](C)CO)C(=O)c2cc(NC(=O)Nc3ccc(F)cc3)ccc2O1 | inactive | active | inactive |
| COc1ccc(S(=O)(=O)Nc2ccc3c(c2)C(=O)N([C@@H](C)CO)C[C@@H](C)[C@@H](CN(C)Cc2ccc(C(=O)O)cc2)OCCCC[C@H](C)O3)cc1 | inactive | inactive | inactive |
